# Data as given in the supplement of paper PMC8728848.
# The list shows a part of the results.
# B1: PX14343H-pdi-506-26-506 (Parabacteroides distasonis) (protein)
# chain: QPTGTMTTDSKLTSKESALALTNSAYLKNTVFNKMTPGWGCNTILLLEYMTGKATSENSQSNYKDFQDLLVSDRSLYIEDWWQDCYAGIANCNLALQKLGEFENLDASLVNGYMAEVKFMRALYYFYLVRIFGDVPKITTVQSELGELQVSRAPVKEIYDEIIIPDLLEAEQSDLAFSDHTGRVSMGAVKALLADVYLTYAGYPLQGGKSYYAESAKRSLEVIKSNEYTLFTDYESLRLPSQNNKGEFIYQVQFSLNKRHNESVRIFLPSRSGISAYDLEYGSLIPTKEFVESFEKGDKRTEEKQYFFTNYKGHPSKFSPGAAELEFMDLNGYYIYKFFDQVAVDNTAKSDLNWSVYRYTDVLLMYAEAQVNADGTPNQQSIDIVNQIRGRAGLAPFKQTNASAFLEEVWDQRYFDLCYENKMWFDMLRTRKIRDDKSGEYVDFIGYKTNWGKVYTETQLLFPIPLSERQANPNLTQNQGY
# Columns and labels:
# Assay in all cases: glycan array binding signal (z-score within array); higher = stronger binding
# Details in all cases: glycan notation: IUPAC condensed, linker removed
# [1] = target: Gal(a1-3)[Gal(a1-4)]Gal(b1-4)GlcNAc
# Summary of the method: (§1)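 Columns mapping to the same glycan were averaged after glycan names were converted to IUPAC-condensed notation. The data come from 3228 arrays in the Consortium for Functional Glycomics database, limited to those with an available protein sequence. Binding is reported as a within-array Z-score averaged across arrays of one protein sequence and across linkers.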
# [2] = target: Gal(a1-4)Gal(b1-3)GlcNAc(b1-2)Man(a1-3)[Gal(a1-4)Gal(b1-3)GlcNAc(b1-2)Man(a1-6)]Man(b1-4)GlcNAc(b1-4)GlcNAc
# Summary of the method: as §1
# Gal(a1-4)Gal(b1-4)Glc = target: Gal(a1-4)Gal(b1-4)Glc
# Summary of the method: as §1
# Gal(a1-4)Gal(b1-4)GlcNAc = target: Gal(a1-4)Gal(b1-4)GlcNAc
# Summary of the method: as §1
# [3] = target: Gal(a1-4)Gal(b1-4)GlcNAc(b1-2)Man(a1-3)[Gal(a1-4)Gal(b1-4)GlcNAc(b1-2)Man(a1-6)]Man(b1-4)GlcNAc(b1-4)GlcNAc
# Summary of the method: as §1
# [4] = target: Gal(a1-4)Gal(b1-4)GlcNAc(b1-3)Gal(b1-4)Glc
# Summary of the method: as §1
# Gal(a1-4)GlcNAc = target: Gal(a1-4)GlcNAc
# Summary of the method: as §1
# Gal(a1-6)Glc = target: Gal(a1-6)Glc
# Summary of the method: as §1
# Gal(b1-2)Gal = target: Gal(b1-2)Gal
# Summary of the method: as §1
# Gal(b1-3)Gal = target: Gal(b1-3)Gal
# Summary of the method: as §1
# Gal(b1-3)Gal(b1-4)GlcNAc = target: Gal(b1-3)Gal(b1-4)GlcNAc
# Summary of the method: as §1
# Gal(b1-3)GalNAc = target: Gal(b1-3)GalNAc
# Summary of the method: as §1
# [5] = target: Gal(b1-3)GalNAc(a1-3)[Fuc(a1-2)]Gal(b1-4)Glc
# Summary of the method: as §1
# [6] = target: Gal(b1-3)GalNAc(a1-3)[Fuc(a1-2)]Gal(b1-4)GlcNAc
# Summary of the method: as §1
# Gal(b1-3)GalNAc(b1-3)Gal = target: Gal(b1-3)GalNAc(b1-3)Gal
# Summary of the method: as §1
# [7] = target: Gal(b1-3)GalNAc(b1-3)Gal(a1-4)Gal(b1-4)Glc
# Summary of the method: as §1
# [8] = target: Gal(b1-3)GalNAc(b1-4)Gal(b1-4)Glc
# Summary of the method: as §1
# [9] = target: Gal(b1-3)GalNAc(b1-4)[Neu5Ac(a2-3)]Gal(b1-4)Glc
# Summary of the method: as §1
# Gal(b1-3)GlcNAc = target: Gal(b1-3)GlcNAc
# Summary of the method: as §1
# [10] = target: Gal(b1-3)GlcNAc(a1-3)Gal(b1-4)GlcNAc
# Summary of the method: as §1
# [11] = target: Gal(b1-3)GlcNAc(a1-6)Gal(b1-4)GlcNAc
# Summary of the method: as §1
# Gal(b1-3)GlcNAc(b1-2)Man = target: Gal(b1-3)GlcNAc(b1-2)Man
# Summary of the method: as §1
# [12] = target: Gal(b1-3)GlcNAc(b1-2)Man(a1-3)[Gal(b1-3)GlcNAc(b1-2)Man(a1-6)]Man(b1-4)GlcNAc(b1-4)GlcNAc
# Summary of the method: as §1
# [13] = target: Gal(b1-3)GlcNAc(b1-2)Man(a1-3)[Gal(b1-3)GlcNAc(b1-2)Man(a1-6)]Man(b1-4)GlcNAc(b1-4)[Fuc(a1-6)]GlcNAc
# Summary of the method: as §1
# [14] = target: Gal(b1-3)GlcNAc(b1-2)Man(a1-3)[GlcNAc(b1-4)][Gal(b1-3)GlcNAc(b1-2)Man(a1-6)]Man(b1-4)GlcNAc(b1-4)GlcNAc
# Summary of the method: as §1
# [15] = target: Gal(b1-3)GlcNAc(b1-2)[Gal(b1-3)GlcNAc(b1-6)]Man(a1-6)[Gal(b1-3)GlcNAc(b1-2)Man(a1-3)]Man(b1-4)GlcNAc(b1-4)GlcNAc
# Summary of the method: as §1
# [16] = target: Gal(b1-3)GlcNAc(b1-3)Gal(b1-3)GlcNAc
# Summary of the method: as §1
# [17] = target: Gal(b1-3)GlcNAc(b1-3)Gal(b1-4)Glc
# Summary of the method: as §1
# [18] = target: Gal(b1-3)GlcNAc(b1-3)Gal(b1-4)GlcNAc
# Summary of the method: as §1
# [19] = target: Gal(b1-3)GlcNAc(b1-3)Gal(b1-4)GlcNAc(b1-2)Man(a1-3)[Gal(b1-3)GlcNAc(b1-3)Gal(b1-4)GlcNAc(b1-2)Man(a1-6)]Man(b1-4)GlcNAc(b1-4)GlcNAc
# Summary of the method: as §1
# [20] = target: Gal(b1-3)GlcNAc(b1-3)Gal(b1-4)GlcNAc(b1-2)[Gal(b1-3)GlcNAc(b1-3)Gal(b1-4)GlcNAc(b1-6)]Man(a1-6)[Gal(b1-3)GlcNAc(b1-3)Gal(b1-4)GlcNAc(b1-2)Man(a1-3)]Man(b1-4)GlcNAc(b1-4)[Fuc(a1-6)]GlcNAc
# Summary of the method: as §1
# [21] = target: Gal(b1-3)GlcNAc(b1-3)Gal(b1-4)GlcNAc(b1-3)Gal(b1-4)GlcNAc(b1-2)[Gal(b1-3)GlcNAc(b1-3)Gal(b1-4)GlcNAc(b1-3)Gal(b1-4)GlcNAc(b1-6)]Man(a1-6)[Gal(b1-3)GlcNAc(b1-3)Gal(b1-4)GlcNAc(b1-3)Gal(b1-4)GlcNAc(b1-2)Man(a1-3)]Man(b1-4)GlcNAc(b1-4)[Fuc(a1-6)]GlcNAc
# Summary of the method: as §1
# [22] = target: Gal(b1-3)GlcNAc(b1-3)Gal(b1-4)GlcNAc(b1-6)[Gal(b1-3)GlcNAc(b1-3)]Gal(b1-4)Glc
# Summary of the method: as §1
# [23] = target: Gal(b1-3)GlcNAc(b1-3)Gal(b1-4)[Fuc(a1-3)]GlcNAc
# Summary of the method: as §1
# [24] = target: Gal(b1-3)GlcNAc(b1-3)Gal(b1-4)[Fuc(a1-3)]GlcNAc(b1-6)[Gal(b1-3)GlcNAc(b1-3)]Gal(b1-4)Glc
# Summary of the method: as §1
# [25] = target: Gal(b1-3)GlcNAc(b1-3)GalNAc
# Summary of the method: as §1
# [26] = target: Gal(b1-3)GlcNAc(b1-6)Gal(b1-4)GlcNAc
# Summary of the method: as §1
# [27] = target: Gal(b1-3)GlcNAc(b1-6)GalNAc
# Summary of the method: as §1
binder,measurement,setting,value
B1,glycan array binding signal (z-score),[1],1.31
same,glycan array binding signal (z-score),[2],0.979
same,glycan array binding signal (z-score),Gal(a1-4)Gal(b1-4)Glc,-0.401
same,glycan array binding signal (z-score),Gal(a1-4)Gal(b1-4)GlcNAc,-0.381
same,glycan array binding signal (z-score),[3],0.705
same,glycan array binding signal (z-score),[4],-0.472
same,glycan array binding signal (z-score),Gal(a1-4)GlcNAc,-0.272
same,glycan array binding signal (z-score),Gal(a1-6)Glc,-0.374
same,glycan array binding signal (z-score),Gal(b1-2)Gal,-0.367
same,glycan array binding signal (z-score),Gal(b1-3)Gal,-0.461
same,glycan array binding signal (z-score),Gal(b1-3)Gal(b1-4)GlcNAc,-0.196
same,glycan array binding signal (z-score),Gal(b1-3)GalNAc,-0.263
same,glycan array binding signal (z-score),[5],-0.478
same,glycan array binding signal (z-score),[6],-0.451
same,glycan array binding signal (z-score),Gal(b1-3)GalNAc(b1-3)Gal,-0.438
same,glycan array binding signal (z-score),[7],-0.267
same,glycan array binding signal (z-score),[8],-0.168
same,glycan array binding signal (z-score),[9],-0.012
same,glycan array binding signal (z-score),Gal(b1-3)GlcNAc,-0.308
same,glycan array binding signal (z-score),[10],0.214
same,glycan array binding signal (z-score),[11],-0.456
same,glycan array binding signal (z-score),Gal(b1-3)GlcNAc(b1-2)Man,-0.39
same,glycan array binding signal (z-score),[12],2.61
same,glycan array binding signal (z-score),[13],0.737
same,glycan array binding signal (z-score),[14],0.752
same,glycan array binding signal (z-score),[15],0.464
same,glycan array binding signal (z-score),[16],-0.362
same,glycan array binding signal (z-score),[17],-0.454
same,glycan array binding signal (z-score),[18],-0.345
same,glycan array binding signal (z-score),[19],0.622
same,glycan array binding signal (z-score),[20],2.67
same,glycan array binding signal (z-score),[21],3.2
same,glycan array binding signal (z-score),[22],-0.156
same,glycan array binding signal (z-score),[23],-0.401
same,glycan array binding signal (z-score),[24],-0.383
same,glycan array binding signal (z-score),[25],0.667
same,glycan array binding signal (z-score),[26],1.69
same,glycan array binding signal (z-score),[27],0.717
